Here are results for 7 substances from publication PMC5684335, “ER-associated degradation regulates Alzheimer’s amyloid pathology and memory function by modulating γ-secretase activity” (Nature Communications, 2017).

Sequences of proteins named here, by UniProt entry; tags and fusion partners are left off. Residues count along the entry.
UniProt Q8CIV2: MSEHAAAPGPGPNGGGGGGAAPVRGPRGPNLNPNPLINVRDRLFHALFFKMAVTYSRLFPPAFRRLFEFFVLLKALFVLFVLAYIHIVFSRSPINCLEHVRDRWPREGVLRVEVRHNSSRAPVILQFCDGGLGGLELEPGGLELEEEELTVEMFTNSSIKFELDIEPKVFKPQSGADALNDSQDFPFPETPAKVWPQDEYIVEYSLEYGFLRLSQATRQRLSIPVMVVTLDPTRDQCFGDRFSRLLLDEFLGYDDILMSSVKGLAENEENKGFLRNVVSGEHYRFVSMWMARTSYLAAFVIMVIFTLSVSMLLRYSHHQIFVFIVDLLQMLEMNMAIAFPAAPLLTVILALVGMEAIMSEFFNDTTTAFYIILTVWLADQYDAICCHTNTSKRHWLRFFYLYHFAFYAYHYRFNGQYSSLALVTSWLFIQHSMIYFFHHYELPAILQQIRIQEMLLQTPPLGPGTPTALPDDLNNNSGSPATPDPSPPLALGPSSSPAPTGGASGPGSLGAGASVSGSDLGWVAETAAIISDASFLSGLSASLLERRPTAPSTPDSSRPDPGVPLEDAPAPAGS
UniProt Q9UKV5: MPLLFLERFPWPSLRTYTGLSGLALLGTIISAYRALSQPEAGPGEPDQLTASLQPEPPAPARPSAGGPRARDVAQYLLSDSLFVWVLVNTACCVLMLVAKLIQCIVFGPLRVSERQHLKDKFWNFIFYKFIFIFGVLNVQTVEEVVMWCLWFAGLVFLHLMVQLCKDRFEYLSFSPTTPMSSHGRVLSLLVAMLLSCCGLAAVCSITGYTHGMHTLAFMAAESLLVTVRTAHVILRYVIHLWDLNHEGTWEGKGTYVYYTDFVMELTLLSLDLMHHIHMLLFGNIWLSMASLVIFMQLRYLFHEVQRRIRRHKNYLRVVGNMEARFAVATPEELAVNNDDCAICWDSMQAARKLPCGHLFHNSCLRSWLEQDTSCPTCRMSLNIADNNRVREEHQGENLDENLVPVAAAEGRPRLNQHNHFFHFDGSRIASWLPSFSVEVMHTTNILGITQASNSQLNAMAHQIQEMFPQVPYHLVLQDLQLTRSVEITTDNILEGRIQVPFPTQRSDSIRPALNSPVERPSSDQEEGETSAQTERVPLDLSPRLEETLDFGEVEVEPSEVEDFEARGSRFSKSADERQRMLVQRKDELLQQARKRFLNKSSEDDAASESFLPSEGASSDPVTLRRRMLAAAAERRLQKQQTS
UniProt Q9R049: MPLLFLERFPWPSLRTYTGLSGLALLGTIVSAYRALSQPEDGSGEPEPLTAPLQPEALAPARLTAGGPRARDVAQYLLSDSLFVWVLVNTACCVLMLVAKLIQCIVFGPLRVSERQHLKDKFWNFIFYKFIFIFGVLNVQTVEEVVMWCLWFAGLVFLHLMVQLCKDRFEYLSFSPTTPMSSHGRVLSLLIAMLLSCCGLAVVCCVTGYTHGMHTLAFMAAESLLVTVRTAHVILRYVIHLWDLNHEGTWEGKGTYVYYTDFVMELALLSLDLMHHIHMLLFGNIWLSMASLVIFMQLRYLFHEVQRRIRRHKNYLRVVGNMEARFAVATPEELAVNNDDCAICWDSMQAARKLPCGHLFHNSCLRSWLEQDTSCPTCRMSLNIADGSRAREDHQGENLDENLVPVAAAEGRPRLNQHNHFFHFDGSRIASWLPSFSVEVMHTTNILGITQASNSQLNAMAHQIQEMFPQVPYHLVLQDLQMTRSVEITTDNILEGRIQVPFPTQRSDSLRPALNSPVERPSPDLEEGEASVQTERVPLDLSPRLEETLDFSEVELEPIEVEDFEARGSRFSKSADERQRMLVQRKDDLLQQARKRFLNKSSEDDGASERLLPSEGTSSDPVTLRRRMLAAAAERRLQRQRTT
UniProt Q9CQR7: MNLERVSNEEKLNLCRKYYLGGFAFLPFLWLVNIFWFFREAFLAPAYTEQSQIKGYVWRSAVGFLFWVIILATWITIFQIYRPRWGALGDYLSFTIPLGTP
UniProt Q86TM6: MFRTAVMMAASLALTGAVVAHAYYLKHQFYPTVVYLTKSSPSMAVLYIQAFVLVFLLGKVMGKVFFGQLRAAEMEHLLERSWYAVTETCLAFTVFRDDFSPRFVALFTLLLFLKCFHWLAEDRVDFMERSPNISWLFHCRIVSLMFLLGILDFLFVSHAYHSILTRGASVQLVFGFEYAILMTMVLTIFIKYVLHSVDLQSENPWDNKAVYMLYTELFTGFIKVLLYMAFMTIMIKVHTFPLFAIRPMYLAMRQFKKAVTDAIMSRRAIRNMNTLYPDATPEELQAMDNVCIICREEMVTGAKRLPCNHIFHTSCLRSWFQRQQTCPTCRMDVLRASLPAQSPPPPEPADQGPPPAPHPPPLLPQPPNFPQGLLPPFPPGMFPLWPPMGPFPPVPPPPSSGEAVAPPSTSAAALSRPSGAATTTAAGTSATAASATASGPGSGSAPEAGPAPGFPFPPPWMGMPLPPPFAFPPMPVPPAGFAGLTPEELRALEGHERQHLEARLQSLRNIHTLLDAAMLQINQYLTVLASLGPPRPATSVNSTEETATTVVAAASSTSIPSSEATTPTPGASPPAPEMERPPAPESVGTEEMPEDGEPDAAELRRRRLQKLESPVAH
UniProt Q9DBY1: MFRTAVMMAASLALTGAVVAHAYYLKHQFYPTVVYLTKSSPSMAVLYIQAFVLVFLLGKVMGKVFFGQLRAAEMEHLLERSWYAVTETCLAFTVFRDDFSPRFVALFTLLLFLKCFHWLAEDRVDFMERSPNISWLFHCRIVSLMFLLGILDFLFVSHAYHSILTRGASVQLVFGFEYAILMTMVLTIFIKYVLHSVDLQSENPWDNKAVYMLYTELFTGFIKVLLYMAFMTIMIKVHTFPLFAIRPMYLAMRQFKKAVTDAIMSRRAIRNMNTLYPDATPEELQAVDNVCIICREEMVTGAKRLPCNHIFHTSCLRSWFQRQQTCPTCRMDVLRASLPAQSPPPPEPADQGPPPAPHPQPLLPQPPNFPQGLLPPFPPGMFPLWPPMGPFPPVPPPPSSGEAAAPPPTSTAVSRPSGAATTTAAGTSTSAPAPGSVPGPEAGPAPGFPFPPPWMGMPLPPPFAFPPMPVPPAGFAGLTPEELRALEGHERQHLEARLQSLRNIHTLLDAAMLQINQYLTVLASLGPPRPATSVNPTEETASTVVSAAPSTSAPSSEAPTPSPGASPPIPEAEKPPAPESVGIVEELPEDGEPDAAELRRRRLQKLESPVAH
UniProt P57716, residues 28-708: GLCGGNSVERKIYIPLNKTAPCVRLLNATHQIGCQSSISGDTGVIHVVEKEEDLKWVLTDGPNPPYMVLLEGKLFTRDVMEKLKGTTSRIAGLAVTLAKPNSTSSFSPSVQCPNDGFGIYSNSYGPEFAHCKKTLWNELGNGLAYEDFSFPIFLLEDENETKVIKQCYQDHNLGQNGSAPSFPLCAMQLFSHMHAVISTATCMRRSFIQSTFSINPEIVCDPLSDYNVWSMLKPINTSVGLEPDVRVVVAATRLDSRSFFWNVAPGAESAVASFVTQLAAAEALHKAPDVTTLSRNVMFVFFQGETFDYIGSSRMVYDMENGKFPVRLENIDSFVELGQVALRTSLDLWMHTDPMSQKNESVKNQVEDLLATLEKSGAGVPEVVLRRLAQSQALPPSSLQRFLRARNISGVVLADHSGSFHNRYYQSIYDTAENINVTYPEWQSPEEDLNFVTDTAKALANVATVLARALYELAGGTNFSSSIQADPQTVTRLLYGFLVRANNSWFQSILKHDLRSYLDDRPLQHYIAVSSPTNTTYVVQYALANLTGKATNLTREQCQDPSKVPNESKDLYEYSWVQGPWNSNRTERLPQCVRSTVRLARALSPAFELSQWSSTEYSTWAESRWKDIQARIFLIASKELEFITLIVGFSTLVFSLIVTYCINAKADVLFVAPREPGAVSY

Results are given in words; binding and its absence hold for the method and conditions named. In cells and extracts the contact can be indirect. Some results given as binding are weak or reduced against the parent protein; the word gives no strength.

For assay [1], the target named is Myc-tagged mouse membralin (mouse) (UniProt Q8CIV2). Briefly: co-IP; Myc-membralin transfected in HEK293T for 3 days; 1 mg lysate in IP buffer, c-Myc antibody or rabbit IgG control, protein A/G magnetic beads, 4 °C overnight; blots for endogenous proteins.
Assay [2] deals with endogenous membralin (N2a cells) (mouse (endogenous in N2a)) (UniProt Q8CIV2). Briefly: co-IP; endogenous membralin immunoprecipitated from N2a whole cell homogenates in 1% digitonin lysis buffer; normal conditions and ER stress (tunicamycin 5 μg/ml or thapsigargin 500 nM, 4 hrs).
For assay [3] the target is unchanged. Briefly: co-IP; endogenous membralin immunoprecipitated from N2a membrane fractions; blots for gamma-secretase components.
In assay [4] the target is endogenous membralin (mouse brain) (mouse (endogenous in brain)) (UniProt Q8CIV2). The assay is described as follows: co-IP; endogenous; mouse brain organelle-enriched (nuclear- and cytosol-free) pellet lysed in 50 mM Tris-HCl pH 8.0, 150 mM NaCl, 1% NP40; 500 μg lysate, membralin antibody, Protein G magnetic beads, 4 °C overnight.

With “AMFR (endogenous, HEK293T) (from UniProt Q9UKV5 1-643)”, in assay [1], the binding result was “binds”.

For the substance “AMFR (endogenous, N2a) (from UniProt Q9R049 1-643)”, the binding entry in assay [2] is reported as “binds”.

Regarding “PEN2 (endogenous, N2a) (from UniProt Q9CQR7 1-101)”, the binding entry in assay [3] is “no binding”.

With “SYVN1 (endogenous, HEK293T) (from UniProt Q86TM6 1-617)”, the binding result in assay [1] was “binds”.

Consider “SYVN1 (endogenous, N2a) (from UniProt Q9DBY1 1-612)”, for which, in assay [2], the binding entry was “binds”.

With “immature nicastrin (endogenous, N2a) (from UniProt P57716 28-708)”, in assay [3], the binding entry is on record as “binds”.

On to “nicastrin (endogenous, mouse brain) (from UniProt P57716 28-708)”, for which the binding entry in assay [4] is on record as “binds”.
